Molecules are shown by their SMILES. Screen size: about 45,000 compounds; about 200 (0.44%) were called active. Not shown: some 7% with an inconclusive outcome. Calls follow the shape of the dose curve; as a rule, active = well fitted activation curve with a large enough effect; inconclusive = small, poorly fitted or top-dose-only effect; inactive = no such curve, though single readings can be large or run the other way. The list shows a part of the results.
Potency is read from the fitted curve at half-maximal effect.

This test in a line: qHTS of TDP-43 Inhibitors: NCGC Sytravon Library Screen. Also: nearly all actives have a fitted effect of over 55% in size. As to growth rescue (activation): 0% is about no effect. The settings on record: yeast TDP-43 toxicity rescue, BacTiter-Glo growth, 24 h; series mostly up to 46.1 µM; growth rescue (activation): at the top concentration. In outline: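 TDP-43-expressing yeast, pregrown in raffinose, seeded at OD600 0.02 in galactose medium with compound for 24 hr at 30 deg C. Growth read by BacTiter-Glo luminescence, so rescue of toxicity appears as activation.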
Regarding `S=c1[nH]nc(-c2ccc3ccccc3n2)n1-c1ccccc1Cl`, the “growth rescue (activation)” value is inactive: 5.24%.
Turning to `COc1cc(/C=C2/SC(=S)N(c3c(C)n(C)n(-c4ccccc4)c3=O)C2=O)ccc1O`, the “growth rescue (activation)” value is inactive: -10.2%.
On to `Cc1cc(NC(=O)CN2C(=O)NC3(CCCCC3)C2=O)no1`, for which the “growth rescue (activation)” value is inactive: 6.36%.
Same read-out and setting: to `C/C(=N/NC(=O)c1cccs1)c1ccco1` belongs inactive: 6%; to `COC(=O)c1ccccc1OS(=O)(=O)N(C)C`, inactive: 1.57%.
On the same count and under the same terms, to `COc1ccccc1NC(=O)N(CCN(C)C)Cc1cc2cc(C)ccc2[nH]c1=O` belongs inactive: 13.7%; to `CN(C)S(=O)(=O)N(CC(=O)N1CCC(Cc2ccccc2)CC1)c1ccccc1`, inactive: 16.1%; to `COc1cc(CCC(=O)OCC(=O)Nc2ccc(C)cc2Br)cc(OC)c1OC`, inactive: 7%.
The same measure, in the same setting: to `Cc1nnc(SCC(=O)c2c(N)n(C3CC3)c(=O)[nH]c2=O)n1C` belongs inactive: -3.54%; to `Cc1cccc(OCC(=O)Nc2ccc(NC(=O)c3ccco3)c(C)c2)c1`, inactive: 25.6%; to `CCCS(=O)(=O)Nc1cc(-c2cn3ccc(C)cc3n2)ccc1C`, inactive: 13%.
In the case of `COc1ccccc1OCC(=O)OCC(=O)NC1CCCCC1`, the “growth rescue (activation)” value was inactive: -1.15%.
For `c1ccc(-c2nc(N3CCOCC3)sc2-c2ccccc2)cc1`, the Potency is active: 25.1 µM.
Turning to `COC(c1ccccc1)c1nnc(CCC(=O)NCc2cccc(-n3cccn3)c2)o1` (stereo not drawn), the “growth rescue (activation)” value is inactive: 3.29%.
On the same count and under the same terms, to `Cc1cc(C)cc(C(=O)NC(=S)Nc2ccc(Cc3ccncc3)cc2)c1` belongs inactive: 10.1%; to `COC(=O)C1=CN(Cc2ccc(OC)cc2)C=C(C(=O)OC)C1c1cc(OC)c(OC)c(OC)c1`, inactive: 3.1%.
For the compound `O=C(OCC(=O)c1ccccc1Cl)C1=NN(c2ccccc2)C(=O)CC1`, the “growth rescue (activation)” value is inactive: 7.7%.
For `O=[N+]([O-])c1c(NCCCO)cc(N2CCN(Cc3ccc4c(c3)OCO4)CC2)c2nonc12`, the “growth rescue (activation)” value is inactive: 19.1%.
Consider `Cc1ccc(CNC(=O)C2CCN(C(=O)Nc3ccc(C)cc3)CC2)cc1`, for which the “growth rescue (activation)” value is inactive: -7.5%.
Still for that read-out and setting: to `C/C(=N\NC(=O)c1ccccc1O)C1CC1` belongs inactive: 7.2%; to `O=C(OCC(=O)N1CCc2ccccc21)c1cc(S(=O)(=O)N2CCOCC2)ccc1F`, inactive: 19.9%; to `CCCc1ccc(OCc2ccc(C(=O)N3CCCC3)o2)cc1`, inactive: -16.1%.
Still for that read-out and setting: to `S=c1[nH]nc(-c2cc(-c3ccsc3)n[nH]2)n1-c1cccc2ccccc12` belongs inactive: -7.63%; to `CCc1nnc(NC(=O)C2CCN(C(=O)NC3CCCCC3)CC2)s1`, inactive: 19.8%.
With `O=[N+]([O-])c1ccc(O)c(/C=N/NC2=NS(=O)(=O)c3ccccc32)c1`, the “growth rescue (activation)” value was inactive: 9.4%.
On the same count and under the same terms, as for `Cc1ccc(C)c(SCC(=O)Nc2ccc(S(=O)(=O)Nc3ncccn3)cc2)c1`, the figure is inactive: 22.5%.
As to `COc1ccccc1C(=O)CN1C(=O)NC2(CCCc3ccccc32)C1=O` (stereo not drawn), the “growth rescue (activation)” value was inactive: -6.18%.
As to `CCCC(C)c1nnc(NC(=O)C(=O)OCC)s1` (stereo not drawn), the “growth rescue (activation)” value is inactive: -2.6%.
With `Cc1ccc(NC(=O)Cc2c(O)c3ccccc3[nH]c2=O)c(C)c1`, the “growth rescue (activation)” value is inactive: 2.49%.
Same read-out and setting: as for `COc1cc(/C=N/NC(=O)CN2CCCCC2)ccc1OCc1ccccc1`, the figure is inactive: 10.5%.
Take `CCN(CC)S(=O)(=O)c1ccc(Cl)c(NC(=O)c2cc(Cl)ccc2Cl)c1`: the “growth rescue (activation)” value was inactive: -2.15%.
In the case of `Cc1ccc(S(=O)(=O)N(C(=O)c2ccco2)c2cc3sc(=O)oc3c3ccccc23)cc1`, the “growth rescue (activation)” value is inactive: 26.1%.
The same measure, in the same setting: to `NC(=O)COC(=O)CCCc1c[nH]c2ccccc12` belongs inactive: -10.1%.
As to `Cc1ccc2nc(C)c3c(c2c1)OC(C(C)(Cl)Br)C3` (stereo not drawn), the “growth rescue (activation)” value is inactive: -3.62%.
Still for that read-out and setting: as for `O=C(COC(=O)c1ccc(O)cc1)Nc1ccccc1-c1ccccc1`, the figure is inactive: -1.17%; as for `CCOC(=O)c1c(NC(=O)c2ccc(S(=O)(=O)N(CC)CC)cc2)sc2c1CCCCC2`, inactive: -0.891%; as for `CCc1ccc(NC(=O)Cn2cnc3sc(C)c(S(=O)(=O)N4CCOCC4)c3c2=O)cc1`, inactive: 7.5%.
Same read-out and setting: to `COc1ccc(-c2cc(C(=O)N3CCCC3)no2)cc1OC` belongs inactive: 30.7%.
Turning to `O=C(COC(=O)c1ccc(Cl)c(S(=O)(=O)N2CCCC2)c1)NCc1cccs1`, the “growth rescue (activation)” value is inactive: -2.95%.
As for `O=[N+]([O-])CC(=Nc1ccc(Cl)cc1)N/N=C\c1oc(O)c2ccccc12`, the “growth rescue (activation)” value is inactive: 32%.
Take `CCC1C(=O)CC(c2ccccc2)NC1c1ccccc1` (stereo not drawn): the “growth rescue (activation)” value is inactive: 8.19%.
Consider `Cc1ccc(C)c(NC(=S)N2CCC(NC(=O)c3ccccc3)CC2)c1`, for which the “growth rescue (activation)” value is inactive: 12.3%.
`NNC(=O)COc1ccccc1[N+](=O)[O-]`: the “growth rescue (activation)” value was inactive: 0.103%.
Take `C/C(=N\NC(=O)c1ccc(NS(=O)(=O)c2cccs2)cc1)c1ccccn1`: the “growth rescue (activation)” value is inactive: -62.7%.
In the case of `CC(C)NC(=S)N1CCN(C(c2ccccc2)c2ccccc2)CC1`, the “growth rescue (activation)” value was inactive: 5.39%.
For `O=c1cc(CN2CCN(Cc3ccccc3)CC2)c2cc(Cl)ccc2o1`, the “growth rescue (activation)” value was inactive: 5.51%.
As to `Cc1ccccc1C(=O)NNC(=O)/C=C/c1ccccc1`, the “growth rescue (activation)” value was inactive: 6.18%.
Regarding `O=[N+]([O-])c1ccccc1S(=O)(=O)N1CCc2ccccc2C1`, the “growth rescue (activation)” value was inactive: -6.56%.
With `CCCN1C2CCCC1CC(NC(=O)c1ccccc1OC)C2` (stereo not drawn), the “growth rescue (activation)” value is inactive: -0.656%.
With `CC(C)CC(c1nnnn1Cc1ccc2c(c1)OCO2)N1CCC(C(N)=O)CC1` (stereo not drawn), the “growth rescue (activation)” value is inactive: 1.52%.
Take `COc1ccccc1-c1nnc(N)s1`: the “growth rescue (activation)” value is inactive: 7.64%.
For the compound `Cc1nnc(SCC(=O)Nc2cc(C(N)=O)cc(C(N)=O)c2)n1-c1ccccc1`, the “growth rescue (activation)” value is inactive: 10.8%.
On to `CCn1cnc2c(oc3ccccc32)c1=O`, for which the “growth rescue (activation)” value was inactive: 19.8%.

The record behind these values is PubChem BioAssay AID1347073 (National Center for Advancing Translational Sciences (NCATS), 2019).
